# Experimental data from PubChem BioAssay AID624171 (National Center for Advancing Translational Sciences (NCATS), 2012).
# About 1,200 (0.29%) of roughly 410,000 compounds were called active. The shares of active, inactive and inconclusive entries below differ from those in the screen. The call rests on the fitted dose curve; in most records, active means well fitted activation curve with a large enough effect; inconclusive means small, poorly fitted or top-dose-only effect; inactive means flat fitted curve, though single readings scatter. Where the call is inconclusive, the potency comes from a doubtful curve fit.
# Test: qHTS of Nrf2 Activators; further: nearly all actives have a fitted effect of over 65% in size
# Details: AREc32 ARE-luciferase reporter (MCF7-derived line), luminescence, 24 h; series mostly up to 46.1 µM
# In short: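 Quantitative high-throughput format: AREc32 reporter cells, 1000 per well, received compound by pin transfer and were incubated 24 hr at 37 deg C, 5% CO2, before Steady-Glo luminescence detection.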
# Potency means the concentration at half of the fitted maximal effect; tags describe the fitted curve by direction and shape.
row,SMILES,Potency
1,COc1ccc(-c2oc(=O)c3cc(OC)c(OC)cc3c2/C=C/c2ccc(OC(C)=O)cc2)cc1,"inconclusive: 15.8 µM [activator, single point]"
2,Cc1cc(C)c(N2C(=O)CC(Sc3ccccc3N)C2=O)c(C)c1 (stereo not drawn),"inconclusive: 22.4 µM [activator, partial curve, poor fit]"
3,COC(=O)c1sccc1NC(=O)c1cc2c(s1)CCCC2,inactive
4,COc1ccccc1-c1coc2c(CN3CCN(C)CC3)c(O)ccc2c1=O,inactive
5,COc1ccc(N=CC2=C(O)c3ccccc3C2=O)c(OC)c1,"inconclusive: 12.6 µM [activator, partial curve, poor fit]"
6,CCOC(=O)Cn1c(=NC(=O)c2nc3ccccc3s2)sc2cc(S(N)(=O)=O)ccc21,inactive
7,C(=Cc1c[nH]c2ccccc12)c1nccc2ccccc12,"inconclusive: 3.16 µM [activator, partial curve, poor fit]"
8,Cc1nn2c(-c3ccccc3)nnc2c2ccccc12,active: 3.98 µM
9,Cc1cccc(NC(=S)NC(=O)c2ccco2)n1,"inconclusive: 17.8 µM [activator, partial curve, poor fit]"
10,COc1cc(NC(=O)c2cc3c(Cl)nc4ccccc4c3s2)cc(OC)c1OC,inactive
11,COCC(=O)Oc1cc(-c2ccc(C)cc2C)c(OC(=O)COC)c(-c2ccc(C)cc2C)c1,"inconclusive: 5.62 µM [activator, single point]"
12,C=C1CC2C3CC[C@@]4(OCOC45COCO5)[C@@]3(C)C(O)CC2[C@@]2(C)CCC(=O)C=C12 (stereo partly drawn),"inconclusive: 22.4 µM [activator, single point]"
13,NS(=O)(=O)c1ccc(CCNC(=O)COC(=O)/C=C/c2ccccc2Cl)cc1,"inconclusive: 17.8 µM [activator, single point]"
14,CCOc1ccc(N2C(=O)C(Cl)=C(Nc3ccccc3O)C2=O)cc1,active: 12.6 µM
15,O=C(CCS(=O)(=O)c1cccs1)Nc1ccc(C(=O)Nc2ccccc2F)cc1,inactive
16,O=C(OCC(=O)N1CCCC1)c1cc(Br)ccc1Cl,"inconclusive: 15.8 µM [activator, partial curve, poor fit]"
17,CCCCOc1ccc(C(=O)C(CN2CCOCC2)c2ccccc2)cc1 (stereo not drawn),"inconclusive: 3.16 µM [activator, single point]"
18,O=C(CN1CCN(S(=O)(=O)c2ccc(Br)cc2)CC1)N/N=C/c1ccc(Cl)c([N+](=O)[O-])c1,"inconclusive: 22.4 µM [activator, single point]"
19,CC(C)=NNc1nc(-c2ccc(N3C(=O)CCC3=O)cc2)cs1,"inconclusive: 25.1 µM [activator, single point]"
20,CSc1ccc(/C=C/C(=O)c2ccc(O)cc2)cc1,"inconclusive: 7.08 µM [activator, full curve]"
21,Cc1ccc(NC(=O)CSc2nnc(-c3ccco3)c(-c3ccco3)n2)cc1,"inconclusive: 17.8 µM [activator, single point]"
22,CSc1nnc(-c2sccc2-n2cccc2)o1,"inconclusive: 17.8 µM [activator, single point]"

row,SMILES,Potency
1,O=c1[nH][nH]cc1C=Nc1cc(Cl)ccc1O,active: 12.6 µM
2,CCOC(=O)C1=C(COC(=O)/C=C/c2cccc([N+](=O)[O-])c2)NC(=O)NC1C (stereo not drawn),"inconclusive: 12.6 µM [activator, single point]"
3,O=C(NNC(=O)c1cc(-c2ccco2)nc2ccccc12)c1ccccc1,"inconclusive: 10 µM [activator, partial curve, poor fit]"
4,N#Cc1c(SCC(N)=O)nsc1SCc1ccccc1Cl,"inconclusive: 17.8 µM [activator, single point]"
5,O=[N+]([O-])c1ccc(CNc2ccc(F)cc2)s1,"inconclusive: 22.4 µM [activator, single point]"
6,O=C(CCNc1ccc(F)cc1)c1cccc([N+](=O)[O-])c1,"inconclusive: 25.1 µM [activator, single point]"
7,COC(=O)c1ccc2nc(-c3ccco3)c(Cc3ccccc3C(F)(F)F)n2c1,"inconclusive: 22.4 µM [activator, single point]"
8,S=c1[nH]nc(-c2ccco2)n1/N=C/C(Cl)=C/c1ccccc1,"inconclusive: 2 µM [activator, full curve, poor fit]"
9,CCOC(=O)c1ccc(NC(=O)c2nc[nH]c2C(=O)NCCNC(=O)c2[nH]cnc2C(=O)Nc2ccc(C(=O)OCC)cc2)cc1,inactive
10,O=C(Nc1cc2c(cc1Br)OCCO2)c1cccs1,active: 12.6 µM
11,COc1ccccc1/C=C/C(=O)NCC(=O)N/N=C/c1ccccc1,inactive
12,Fc1ccc(N2CCN(Cc3nnc(-c4ccccc4Cl)o3)CC2)cc1,inactive
13,C[C@@H](CN1C2=NC[C@H](Cc3ccccc3)N2C[C@H]1Cc1ccc(O)cc1)NC(=O)CCC1CCCCC1,inactive
14,COc1ccc(Nc2nc3ccccc3nc2NS(=O)(=O)c2ccc(NC(C)=O)cc2)cc1,inactive
15,CCc1ccc(Nc2c([N+](=O)[O-])c(=O)oc3ccccc23)cc1,"inconclusive: 22.4 µM [activator, single point]"
16,CCN(Cc1ccccc1)c1nc2c(S(=O)(=O)c3ccccc3)nnn2c2ccc(Cl)cc12,inactive
17,O=C(O)Cc1sc(Nc2ccc(Cl)cc2)nc1-c1cccs1,"inconclusive: 17.8 µM [activator, single point]"
18,O=C(Nc1ccccc1F)Nc1cccc2ccc(O)cc12,"inconclusive: 11.2 µM [activator, partial curve]"
19,COc1ccccc1NC(=O)CSc1nc2c(sc3ccccc32)c(=O)n1CCN(C)C,"inconclusive: 22.4 µM [activator, single point]"
20,O=C(c1ccc(S(=O)(=O)Cc2ccccc2F)c([N+](=O)[O-])c1)N1CCCCCC1,"inconclusive: 12.6 µM [activator, partial curve, poor fit]"
21,O=C(Nc1cccc([N+](=O)[O-])c1)Nc1cccc([N+](=O)[O-])c1,"inconclusive: 0.355 µM [activator, partial curve, poor fit]"
